Source: patent US11180452B2, “Methods and compositions for selectively inhibiting pathogenic microbes” (priority 2019, dated 2021)

system: Burkholderia cenocepacia NRRL: B-59561; experiment: microbe, parasite or virus in culture; assay type: cell-based

Compound	MBC [µg/mL]	MIC [µg/mL]
Oc1ccc(Sc2c[nH]c3ccccc23)cc1 [Compound 156I, 4-((1H-indol-3-yl)thio)phenol]	> 150	> 50
COc1ccc(Sc2c[nH]c3ccccc23)cc1 [Compound 156O, 3-((4-methoxyphenyl)thio)-1H-indole]	–	> 50
Brc1ccc(Sc2[nH]c3ccccc3c2Sc2ccc(Br)cc2)cc1 [Compound 156P, 2,3-bis((4-bromophenyl)thio)-1H-indole]	–	> 50
Fc1ccc2c(Sc3ccc(Br)cc3)c[nH]c2c1 [Compound 172A, 3-((4-bromophenyl)thio)-6-fluoro-1H-indole]	–	> 50
Cc1c(Sc2ccc(Br)cc2)[nH]c2ccccc12 [Compound 172B, 2-((4-bromophenyl)thio)-3-methyl-1H-indole]	–	> 50
Cc1[nH]c2ccccc2c1Sc1ccc(Br)cc1 [Compound 172C, 3-((4-bromophenyl)thio)-2-methyl-1H-indole]	–	> 50
Brc1ccc(Sc2c[nH]c3ccc(Br)cc23)cc1 [Compound 172D, 5-bromo-3-((4-bromophenyl)thio)-1H-indole]	> 150	100 (≈ 261 µM)
COc1ccc2[nH]cc(Sc3ccc(Br)cc3)c2c1 [Compound 172E, 3-((4-bromophenyl)thio)-5-methoxy-1H-indole]	–	> 50
COC(=O)c1ccc2[nH]cc(Sc3ccc(Br)cc3)c2c1 [Compound 172G, methyl 3-((4-bromophenyl)thio)-1H-indole-5-carboxylate]	–	> 45
[O-][S+](c1ccc(Br)cc1)c1c[nH]c2ccc(Br)cc12 (stereo not shown) [Compound 172I, 5-bromo-3-((4-bromophenyl)sulfinyl)-1H-indole]	–	> 40
O=S(=O)(c1ccc(Br)cc1)c1c[nH]c2ccc(Br)cc12 [Compound 172J, 5-bromo-3-((4-bromophenyl)sulfonyl)-1H-indole]	–	> 50
Brc1ccc(Sc2c[nH]c3cc(Br)ccc23)cc1 [Compound 174A, 6-bromo-3-((4-bromophenyl)thio)-1H-indole]	–	> 50
Brc1ccc2[nH]cc(Sc3ccccc3)c2c1 [Compound 174AA, 5-bromo-3-(phenylthio)-1H-indole]	–	> 50
Brc1ccc(Sc2c[nH]c3cc(Br)c(Br)cc23)cc1 [Compound 174AB, 5,6-dibromo-3-((4-bromophenyl)thio)-1H-indole]	–	> 50
Brc1ccc(Sc2c[nH]c3c(Br)cc(Br)cc23)cc1 [Compound 174AC, 5,7-dibromo-3-((4-bromophenyl)thio)-1H-indole]	–	> 50
Clc1c(Cl)c(Cl)c(Sc2c[nH]c3ccc(Br)cc23)c(Cl)c1Cl [Compound 174AD, 5-bromo-3-((perchlorophenyl)thio)-1H-indole]	–	> 50
Brc1ccc(Sc2c[nH]c3cc(Br)cc(Br)c23)cc1 [Compound 174AE, 4,6-dibromo-3-((4-bromophenyl)thio)-1H-indole]	–	> 50
Clc1cc2[nH]cc(Sc3ccc(Br)cc3)c2cc1Br [Compound 174AF, 5-bromo-3-((4-bromophenyl)thio)-6-chloro-1H-indole]	–	> 50
Clc1cc(Cl)c(Sc2c[nH]c3ccc(Br)cc23)c(Cl)c1 [Compound 174AG, 5-bromo-3-((2,4,6-trichlorophenyl)thio)-1H-indole]	–	> 50
Brc1ccc2[nH]cc(Sc3cc(Br)c(Br)c(Br)c3)c2c1 [Compound 174AH, 5-bromo-3-((3,4,5-tribromophenyl)thio)-1H-indole]	–	> 50
Clc1ccccc1Sc1c[nH]c2ccc(Br)cc12 [Compound 174AJ, 5-bromo-3-((2-chlorophenyl)thio)-1H-indole]	–	> 50
Cc1[nH]c2ccc(O)cc2c1Sc1ccccc1N [Compound 174AK, 3-((2-aminophenyl)thio)-2-methyl-1H-indol-5-ol]	–	> 50
Brc1ccc2[nH]cc(Sc3c[nH]c4ccccc34)c2c1 [Compound 174AL, 3-((1H-indol-3-yl)thio)-5-bromo-1H-indole]	–	> 50
Clc1ccc2[nH]cc(Sc3ccc(Br)cc3)c2c1 [Compound 174C, 3-((4-bromophenyl)thio)-5-chloro-1H-indole]	–	> 50
Brc1ccc(Sc2c[nH]c3cccc(Br)c23)cc1 [Compound 174D, 4-bromo-3-((4-bromophenyl)thio)-1H-indole]	–	> 50
Fc1ccc2[nH]cc(Sc3ccc(Br)cc3)c2c1 [Compound 174E, 3-((4-bromophenyl)thio)-5-fluoro-1H-indole]	–	> 50
Brc1ccc2[nH]cc(Sc3cccc4ccccc34)c2c1 [Compound 174G, 5-bromo-3-(naphthalen-1-ylthio)-1H-indole]	–	> 50

Compound	MBC [µg/mL]	MIC [µg/mL]
Brc1ccc(Sc2c[nH]c3c(Br)cccc23)cc1 [Compound 174H, 7-bromo-3-((4-bromophenyl)thio)-1H-indole]	–	> 50
Clc1ccc(Sc2c[nH]c3ccc(Br)cc23)cc1 [Compound 174J, 5-bromo-3-((4-chlorophenyl)thio)-1H-indole]	–	> 50
Brc1ccc2[nH]cc(SCc3ccccc3)c2c1 [Compound 174K, 3-(benzylthio)-5-bromo-1H-indole]	–	> 50
Brc1ccc2[nH]cc(Sc3nc4ccccc4s3)c2c1 [Compound 174L, 2-((5-bromo-1H-indol-3-yl)thio)benzo[d]thiazole]	–	> 50
Nc1ccccc1Sc1c[nH]c2ccc(Br)cc12 [Compound 174M, 2-((5-bromo-1H-indol-3-yl)thio)aniline]	> 150	150 (≈ 470 µM)
Brc1cccc(Sc2c[nH]c3ccc(Br)cc23)c1 [Compound 174N, 5-bromo-3-((3-bromophenyl)thio)-1H-indole]	> 150	–
Brc1ccc(CSc2c[nH]c3ccc(Br)cc23)cc1 [Compound 174O, 5-bromo-3-((4-bromobenzyl)thio)-1H-indole]	–	> 50
Fc1ccc(Sc2c[nH]c3ccc(Br)cc23)cc1 [Compound 174P, 5-bromo-3-((4-fluorophenyl)thio)-1H-indole]	–	> 50
COc1ccc(Sc2c[nH]c3ccc(Br)cc23)cc1 [Compound 174Q, 5-bromo-3-((4-methoxyphenyl)thio)-1H-indole]	–	> 50
Brc1ccc2[nH]cc(Sc3ccc(-c4ccccc4)cc3)c2c1 [Compound 174R, 3-([1,1′-biphenyl]-4-ylthio)-5-bromo-1H-indole]	–	> 50
Brc1ccc2[nH]cc(Sc3ccc4ccccc4c3)c2c1 [Compound 174S, 5-bromo-3-(naphthalen-2-ylthio)-1H-indole]	–	> 50
Clc1cccc(Sc2c[nH]c3ccc(Br)cc23)c1Cl [Compound 174T, 5-bromo-3-((2,3-dichlorophenyl)thio)-1H-indole]	–	> 50
Brc1ccc(Sc2c[nH]c3ccccc23)cc1 [Compound 174U, 3-((4-bromophenyl)thio)-1H-indole]	–	> 50
Clc1ccc(Sc2c[nH]c3ccc(Br)cc23)c(Cl)c1 [Compound 174V, 5-bromo-3-((2,4-dichlorophenyl)thio)-1H-indole]	–	> 50
Clc1ccc(Sc2c[nH]c3ccc(Br)cc23)cc1Cl [Compound 174W, 5-bromo-3-((3,4-dichlorophenyl)thio)-1H-indole]	–	> 50
Nc1cc(Br)ccc1Sc1c[nH]c2ccc(Br)cc12 [Compound 174X, 5-bromo-2-((5-bromo-1H-indol-3-yl)thio)aniline]	–	> 50
Nc1cccc(Sc2c[nH]c3ccc(Br)cc23)c1 [Compound 174Y, 3-((5-bromo-1H-indol-3-yl)thio)aniline]	–	> 50
Nc1ccc(Sc2c[nH]c3ccc(Br)cc23)cc1 [Compound 174Z, 4-((5-bromo-1H-indol-3-yl)thio)aniline]	–	> 50
Oc1ccccc1Sc1c[nH]c2ccc(C(F)(F)F)cc12 [Compound 177A, 2-((5-(trifluoromethyl)-1H-indol-3-yl)thio)phenol]	> 50	25 (≈ 80.8 µM)
Oc1ccc(Sc2c[nH]c3ccc(C(F)(F)F)cc23)cc1 [Compound 177B, 4-((5-(trifluoromethyl)-1H-indol-3-yl)thio)phenol]	> 50	25 (≈ 80.8 µM)
Nc1ccccc1Sc1c[nH]c2ccc(C(F)(F)F)cc12 [Compound 177C, 2-((5-(trifluoromethyl)-1H-indol-3-yl)thio)aniline]	> 50	> 50
Fc1ccccc1Sc1c[nH]c2ccc(C(F)(F)F)cc12 [Compound 177D, 3-((2-fluorophenyl)thio)-5-(trifluoromethyl)-1H-indole]	> 50	12.5 (≈ 40.2 µM)
Fc1ccc2[nH]cc(Sc3ccccc3Br)c2c1 [Compound 177E, 3-((2-bromophenyl)thio)-5-fluoro-1H-indole]	> 50	> 50
FC(F)(F)c1ccc2[nH]cc(Sc3ccccc3C(F)(F)F)c2c1 [Compound 177F, 5-(trifluoromethyl)-3-((2-(trifluoromethyl)phenyl)thio)-1H-indole]	> 50	6.25 (≈ 17.3 µM)
CCc1ccccc1Sc1c[nH]c2ccc(C(F)(F)F)cc12 [Compound 177G, 3-((2-ethylphenyl)thio)-5-(trifluoromethyl)-1H-indole]	> 50	> 50
OCc1[nH]c2ccc(Br)cc2c1Sc1ccccc1Br [Compound 177H, (5-bromo-3-((2-bromophenyl)thio)-1H-indol-2-yl)methanol]	> 50	25 (≈ 60.5 µM)

≈ marks a conversion by molar mass, not a printed value.
